# PubChem BioAssay AID686978 (National Center for Advancing Translational Sciences (NCATS), 2013)
# About 64,000 (15%) of roughly 420,000 compounds were called active. Inconclusive results, whose numbers are uncertain, are shown with a selection of clear calls. Calls follow the shape of the dose curve; as a rule, active = well fitted inhibition curve with a large enough effect; inconclusive = small, poorly fitted or top-dose-only effect; inactive = flat fitted curve, though single readings scatter. Potencies of inconclusive entries are left out as doubtful fits.
# Assay: qHTS for Inhibitors of human tyrosyl-DNA phosphodiesterase 1 (TDP1): qHTS in cells in absence of CPT; also: nearly all actives have a fitted effect of over 55% in size
# Details: DT40 Tdp1-/- hTDP1 cells, no CPT, ATP luminescence, 48 h; activity change, negative = growth inhibition: at 46.2 µM (top of the series) unless noted
# How it was run: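 Chicken DT40 Tdp1-/- cells complemented with human TDP1, screened without camptothecin (DMSO vehicle only), 400 cells/well. Compounds pin-transferred, cells incubated at 37 °C for at least 48 hr. Growth read as ATP-dependent luminescence (CellTiter-Glo, 30 min at RT).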
# % is scaled to controls: 0 for no effect and ±100 for the full control effect; potency is read from the fitted curve at half-maximal effect; tags tell the direction and shape of the fitted curve.
Compound,Potency,"activity change, negative = growth inhibition"
CSc1nnc2c3ccccc3n(CCc3ccccc3)c2n1,active: 16.4 µM,
CCn1c(=O)c(C(=O)CN2CCN(Cc3ccc4c(c3)OCO4)CC2)c(N)n(Cc2ccccc2)c1=O,"inconclusive [inhibitor, single point]",
N#Cc1cccc(-c2nc(NCCN3CCOCC3)c3ccccc3n2)c1,"inconclusive [inhibitor, single point]",
O=C(CCSCc1cccc(Cl)c1)N1CCN(c2ccc(Cl)cc2)CC1,"inconclusive [inhibitor, single point]",
COc1ccc(CCNC(=O)CCCCn2c(=O)c3ccccc3n(CC(=O)Nc3c(C)cccc3C)c2=O)cc1OC,"inconclusive [inhibitor, partial curve]",
O=C(COC(=O)c1cn(-c2ccccc2)nc1-c1cccs1)NC1CC1,"inconclusive [inhibitor, single point]",
COc1ccc(CN(C)Cc2nc(Cc3ccccc3Cl)no2)cc1OC,"inconclusive [inhibitor, single point]",
Cc1cc(C(F)(F)F)cc(NNC(=O)NC(=O)c2ccc(Cl)cc2)n1,"inconclusive [inhibitor, single point]",
CCN(CC)c1ccc(/C=N/NC(=O)CNC(=O)C2COc3ccccc3O2)c(O)c1 (stereo unspecified),active: 3.26 µM,
CC(C)(C)OC(=O)N1CCC[C@H]1C(=O)Nc1ccc(C#N)cc1,"inconclusive [inhibitor, full curve, poor fit]",
Cc1nn(-c2ccccc2)c(C)c1CC(=O)NCC1Cc2cc(F)cc(-c3cccnc3)c2O1 (stereo unspecified),"inconclusive [inhibitor, single point]",
CCOc1ccc(NS(=O)(=O)c2ccc(C(=O)N(C)C)s2)cc1,,inconclusive: -33.2% [inhibitor]
CCOc1ccc2[nH]cc(C(=O)N3CCN(C4CCCCC4)CC3)c(=O)c2c1,inactive,
CN1CCN(c2ncc3ncc(=O)n(Cc4cccs4)c3n2)CC1,"inconclusive [inhibitor, single point]",
O=C(c1cccc(Cl)c1)N1c2nc(-c3ccco3)nn2C2(CCCCC2)[C@@H]2CCCC[C@@H]21,"inconclusive [inhibitor, single point]",
O=C(NNC(=S)NC(=O)c1cccs1)c1cccnc1,"inconclusive [inhibitor, single point]",
CN(C)C(=O)c1cc(C(=O)c2ccc(F)cc2C(F)(F)F)c[nH]1,"inconclusive [inhibitor, partial curve]",
CCc1nc(SCc2ccc(C(=O)OC)o2)n[nH]1,,inconclusive: -32.1% [inhibitor]
COC(=O)c1ccccc1OCCOCCOc1cccc2cccnc12,"inconclusive [inhibitor, partial curve]",
CCc1ccccc1NC1c2ccccc2C(=O)N1Cc1ccco1 (stereo unspecified),"inconclusive [inhibitor, single point]",
C#CC(CO)N(CCN(Cc1ccccc1)C(C#C)CO)Cc1ccccc1 (stereo unspecified),"inconclusive [inhibitor, single point]",
COc1cc(OC)cc(-n2nnnc2SCC(=O)Nc2ccc(C(C)=O)cc2)c1,inactive,
O=C(N/N=C/C1CC=CCC1)c1cc(-c2cccnc2)nc2ccccc12 (stereo unspecified),inactive,
COc1cc(/C=C/C(=O)O)cc(S(=O)(=O)Nc2ccc3nc(C)sc3c2)c1OC,inactive,

Compound,Potency,"activity change, negative = growth inhibition"
CCCCCn1nnnc1C1c2ccccc2C(=O)N1Cc1ccco1 (stereo unspecified),"inconclusive [inhibitor, single point]",
C/C(CCc1ccc2c(c1)OCO2)=N\N=C1\NC(=O)CC(C(=O)Nc2ccccc2)S1 (stereo unspecified),inactive,
COc1cc(OC)cc(N2C(=O)N(Cc3ccc(C(C)(C)C)cc3)c3ccccc3S2(=O)=O)c1,active: 20.6 µM,
CCOC(=O)c1c(C)[nH]c(C)c1S(=O)(=O)NCC(=O)Nc1cccc(C#N)c1,"inconclusive [inhibitor, full curve]",
Cc1ccc(CN(C(=O)Cn2nnc3ccccc32)C(C(=O)NCc2ccco2)c2cccs2)cc1 (stereo unspecified),active: 23.1 µM,
CCOC(=O)C1=C(C)N(c2ccc(C)c(C)c2)C(=O)/C1=C\c1ccco1,"inconclusive [inhibitor, single point]",
CC(C)CC1Nc2ccc(C(=O)NCCCN3CCOCC3)cc2NC1=O (stereo unspecified),active: 16.4 µM,
Cc1cc(C)c(OCCCNCc2ccccc2)c(Br)c1,active: 23.1 µM,
Cc1cc(C(=O)NC2CCCCCCC2)ccc1[N+](=O)[O-],"inconclusive [inhibitor, partial curve]",
c1coc(Cn2c(SCc3nc4ccccc4[nH]3)nnc2-c2cnccn2)c1,active: 23.1 µM,
O=C(CCC1CCCC1)N1CCN(S(=O)(=O)Cc2ccccc2)CC1,,inconclusive: -34.2% [inhibitor]
O=C(CCNS(=O)(=O)c1cccc2nsnc12)NC1CCN(Cc2ccccc2)CC1,,inconclusive: -31.3% [inhibitor]
COc1cccc(NC(=O)CC(=O)Nc2ccc3nc4n(c(=O)c3c2)CCCCC4)c1,inactive,
Cc1nc2ccc(S(=O)(=O)CCC(=O)Nc3ccc(Cl)cc3)cc2s1,inactive,
CCN1CCN(C(=O)c2ccc(C(F)(F)F)cc2)CC1,inactive,
CC1CC(C)CN(C(=O)c2ccc(S(=O)(=O)N3CCCC3)cc2)C1 (stereo unspecified),inactive,
O=C(CCN1C(=O)C2CCCCC2C1=O)N1CCN(S(=O)(=O)c2c(F)cccc2F)CC1 (stereo unspecified),inactive,
COc1ccc(Cn2c(O)c(C=Nc3ccccc3C(=O)O)c3ccccc3c2=O)cc1,active: 10.3 µM,
COc1ccc(OC(C)C(=O)Nc2ccc([N+](=O)[O-])cc2)cc1 (stereo unspecified),active: 20.6 µM,
C=CC(=O)Nc1ccc(Br)cc1,"inconclusive [inhibitor, single point]",
COc1ccc(OC)c(CNC(=O)c2ccc3c(c2)c(C)c(C)n3Cc2ccc(Cl)cc2)c1,"inconclusive [inhibitor, partial curve]",
Cc1cc(C(=O)Nc2ccccc2)oc(=O)c1,"inconclusive [inhibitor, single point]",
CCCSc1nnc(CNC(=O)C23CC4CC(CC(C4)C2)C3)n1Cc1ccccc1,"inconclusive [inhibitor, single point]",
O=C(Nc1cc(C2CC2)nn1-c1ccccc1)c1ccc(F)cc1,inactive,

Compound,Potency,"activity change, negative = growth inhibition"
COCCCN1C(=O)N(c2ccccc2)C(=O)C1CC(=O)Nc1ccccc1 (stereo unspecified),inactive,
O=C(C1CC(c2ccccc2O)=NO1)N1CCc2ccccc2C1 (stereo unspecified),,inconclusive: -31.2% [inhibitor]
COc1ccccc1C(=O)n1nc(-c2ccco2)nc1N,"inconclusive [inhibitor, single point]",
CC(OC(=O)c1ccc(F)c(S(=O)(=O)N2CCOCC2)c1)C(=O)NCC1CCCCC1 (stereo unspecified),"inconclusive [inhibitor, partial curve]",
CCOc1ccc(NC(=S)N(CCN2CCOCC2)Cc2ccc3c(c2)CCCN3CC)cc1,"inconclusive [inhibitor, single point]",
CCOc1ccc(NC(=O)c2c(NCc3cccc(OC)c3OC)sc3c2CCC3)cc1,"inconclusive [inhibitor, single point]",
Oc1ccc2ccccc2c1N=Nc1ccccn1,active: 0.58 µM,
Cc1nc2ccccc2nc(=O)c1NNc1ccccc1,"inconclusive [inhibitor, single point]",
Cc1c(C(=O)N(C)C(C)c2ccccn2)oc2c(F)cccc12 (stereo unspecified),inactive,
COc1ccc(CN2CCc3ccccc3C2)cc1Br,"inconclusive [inhibitor, single point]",
COc1ccccc1CN1CCN(S(=O)(=O)c2ccc(C)cc2)CC1,inactive,
Cc1cc(N2CCC(C)CC2)nc2ccc(NC(=O)Cc3c(F)cccc3Cl)cc12,"inconclusive [inhibitor, partial curve]",
S=C1NC(c2ccccc2)=NCN1c1ccc(Br)cc1,"inconclusive [inhibitor, single point]",
O=C(Oc1cccc(OC(=O)N2CCCCC2)c1)N1CCCCC1,"inconclusive [inhibitor, partial curve]",
COc1cc(S(=O)(=O)N(Cc2cccs2)C2CC2)ccc1-n1cnnn1,"inconclusive [inhibitor, partial curve, poor fit]",
CCOC(=O)N1CCN(CCC(=O)Nc2cc(OC)cc(OC)c2)CC1,inactive,
CCOC(=O)N1CCN(C(=O)CN(c2ccccc2F)S(=O)(=O)c2ccc(C)cc2)CC1,"inconclusive [inhibitor, single point]",
CCOC(=O)Cc1cc(-c2ccc(F)cc2)nc2ccc3ccccc3c12,active: 29.1 µM,
Oc1ccc(-c2csc(-c3c[nH]c4ccccc34)n2)c(O)c1,"inconclusive [inhibitor, partial curve]",
Cc1ccc(NC(=O)c2ccccc2OCC(=O)c2ccccc2)cc1,"inconclusive [inhibitor, single point]",
Cc1ccc(Cl)c(OCCN2CCc3ccccc3C2)c1,active: 23.1 µM,
CCOc1ccc(C(=O)c2ccc(OC)c(O)c2O)cc1,"inconclusive [inhibitor, single point]",
CC(C)(C)NC(=O)C(c1ccc(-c2ccccc2)cc1)N(C[C@H]1CC[C@@H]([C@@H]2CC[C@H](CO)O2)O1)C(=O)c1ccc(C(C)(C)C)cc1 (stereo partly specified),active: 20.6 µM,
